# Results reported in the supplement of paper PMC8728848.
# The entries come from a sample that favours the strongest signals as a whole.
# B1: LPQ (Mycobacterium tuberculosum), A0A045GNF2 (protein)
# chain: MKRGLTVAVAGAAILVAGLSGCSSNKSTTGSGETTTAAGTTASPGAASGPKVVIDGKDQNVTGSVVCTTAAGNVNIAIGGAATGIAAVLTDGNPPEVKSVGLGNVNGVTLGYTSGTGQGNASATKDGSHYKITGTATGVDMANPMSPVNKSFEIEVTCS
# Columns and labels:
# Assay in all cases: glycan array binding signal (z-score within array); higher = stronger binding
# Conditions in all cases: glycan notation: IUPAC condensed, linker removed
# [1] = target: Fuc(a1-2)Gal(b1-3)GlcNAc(b1-2)Man(a1-3)[Fuc(a1-2)Gal(b1-3)GlcNAc(b1-2)Man(a1-6)]Man(b1-4)GlcNAc(b1-4)GlcNAc
# [2] = target: Fuc(a1-2)Gal(b1-4)GlcNAc(b1-2)Man(a1-3)[Fuc(a1-2)Gal(b1-4)GlcNAc(b1-2)Man(a1-6)]Man(b1-4)GlcNAc(b1-4)GlcNAc
# [3] = target: Fuc(a1-2)[Gal(a1-3)]Gal(b1-4)GlcNAc(b1-2)Man(a1-3)[Fuc(a1-2)[Gal(a1-3)]Gal(b1-4)GlcNAc(b1-2)Man(a1-6)]Man(b1-4)GlcNAc(b1-4)GlcNAc
# [4] = target: Fuc(a1-2)[GalNAc(a1-3)]Gal(b1-4)GlcNAc
# [5] = target: Fuc(a1-3)[Gal(b1-4)]GlcNAc(b1-2)Man(a1-6)[Gal(b1-4)GlcNAc(b1-2)Man(a1-3)]Man(b1-4)GlcNAc(b1-4)GlcNAc
# [6] = target: Fuc(a1-3)[Neu5Ac(a2-3)]Gal(b1-4)GlcNAc(b1-3)GalNAc
# [7] = target: Gal(a1-3)Gal(b1-4)[Fuc(a1-3)]GlcNAc(b1-2)Man(a1-3)[Gal(a1-3)Gal(b1-4)[Fuc(a1-3)]GlcNAc(b1-2)Man(a1-6)]Man(b1-4)GlcNAc(b1-4)GlcNAc
# [8] = target: Gal(b1-3)Gal(b1-4)GlcNAc(b1-2)Man(a1-3)[Gal(b1-3)Gal(b1-4)GlcNAc(b1-2)Man(a1-6)]Man(b1-4)GlcNAc(b1-4)GlcNAc
# [9] = target: Gal(b1-3)[Fuc(a1-4)]GlcNAc(b1-2)Man(a1-3)[Gal(b1-3)[Fuc(a1-4)]GlcNAc(b1-2)Man(a1-6)]Man(b1-4)GlcNAc(b1-4)GlcNAc
# [10] = target: Gal(b1-4)GlcNAc(b1-2)Man(a1-6)Man(b1-4)GlcNAc(b1-4)GlcNAc
# [11] = target: Gal(b1-4)GlcNAc(b1-3)Gal(b1-4)GlcNAc
# [12] = target: Gal3S(b1-4)[Fuc(a1-3)]Glc
# Gal3S6S(b1-4)GlcNAc = target: Gal3S6S(b1-4)GlcNAc
# [13] = target: GlcNAc(a1-4)Gal(b1-4)GlcNAc
# GlcNAc(b1-4)GlcNAc = target: GlcNAc(b1-4)GlcNAc
# [14] = target: Neu5Ac(a2-3)Gal(b1-3)[Fuc(a1-4)]GlcNAc(b1-3)Gal(b1-3)[Fuc(a1-4)]GlcNAc
# [15] = target: Neu5Ac(a2-3)Gal(b1-4)GlcNAc(b1-2)Man(a1-3)[Neu5Ac(a2-6)Gal(b1-4)GlcNAc(b1-2)Man(a1-6)]Man(b1-4)GlcNAc(b1-4)GlcNAc
# Neu5Ac(a2-6)Gal = target: Neu5Ac(a2-6)Gal
binder,measurement,setting,value
B1,glycan array binding signal (z-score),[1],3.85
same,glycan array binding signal (z-score),[2],-0.251
same,glycan array binding signal (z-score),[3],2.87
same,glycan array binding signal (z-score),[4],-0.119
same,glycan array binding signal (z-score),[5],-0.606
same,glycan array binding signal (z-score),[6],4.19
same,glycan array binding signal (z-score),[7],15.9
same,glycan array binding signal (z-score),[8],0.575
same,glycan array binding signal (z-score),[9],1.6
same,glycan array binding signal (z-score),[10],2.36
same,glycan array binding signal (z-score),[11],-0.242
same,glycan array binding signal (z-score),[12],-0.733
same,glycan array binding signal (z-score),Gal3S6S(b1-4)GlcNAc,-0.26
same,glycan array binding signal (z-score),[13],-0.03
same,glycan array binding signal (z-score),GlcNAc(b1-4)GlcNAc,0.208
same,glycan array binding signal (z-score),[14],-0.302
same,glycan array binding signal (z-score),[15],-0.075
same,glycan array binding signal (z-score),Neu5Ac(a2-6)Gal,-0.395
